# In PubChem BioAssay (Tox21):
# Inconclusive results, whose numbers are uncertain, are shown with a selection of clear calls. For part of these data: Where the call is inconclusive, the potency comes from a doubtful curve fit. The source made the active and inactive calls. Unless noted, the call rests on the fitted dose curve; in most records, active means well fitted curve in the direction sought with a large enough effect in the repeat runs; inconclusive means weak or mixed curves; inactive means no such curve, though single readings can be large; an effect the other way counts as inactive or inconclusive.
# Assays:
# [1] = qHTS assay for small molecule agonists of the p53 signaling pathway (AID 651631; calls by dose curve; further: on the % scale 0 is the no-effect control and ±100 the full control effect; nearly all actives have a fitted effect of over 15% in size); conditions: HCT-116 p53RE-bla reporter, beta-lactamase FRET ratio, 16 h; activation: at 73.3 µM (top of the series) unless noted
# Method in brief: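 p53RE-bla HCT-116 cells; compounds 16 h, 37 °C; LiveBLAzer B/G FRET substrate 2 h RT; fluorescence intensity read-out, qHTS format.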
# [2] = qHTS assay for small molecule disruptors of the mitochondrial membrane potential (AID 720635); conditions: HepG2 mitochondrial membrane potential, Mito-MPS dye ratio; ratio activity, negative = MMP loss: at 83.2 µM (top of the series) unless noted; further: potency means the concentration at half of the fitted maximal effect; on ratio activity, negative = MMP loss: on the % scale 0 is the no-effect control and ±100 the full control effect
# Method in brief: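 HepG2 cells (2,000/well) attached overnight at 37C, then took compound for 1 hr at 37C, 5% CO2. Mito-MPS dye was added for 30 min; fluorescence was read at 490/535 nm (monomers) and 540/590 nm (aggregates).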
# [3] = molecular target: Peroxisome proliferator-activated receptor gamma (Homo sapiens) (UniProt P37231); assay: qHTS assay to identify small molecule antagonists of the peroxisome proliferator-activated receptor gamma (PPARg) signaling pathway (AID 743191; calls by dose curve; further: on the % scale 0 is the no-effect control and ±100 the full control effect; nearly all actives have a fitted effect of over 30% in size); conditions: HEK293H PPARg-UAS-bla, beta-lactamase ratio, antagonist, 17 h; ratio activity, negative = inhibition: at 62.6 µM (top of the series) unless noted
# UniProt P37231, sequence (P37231 whole entry, looked up): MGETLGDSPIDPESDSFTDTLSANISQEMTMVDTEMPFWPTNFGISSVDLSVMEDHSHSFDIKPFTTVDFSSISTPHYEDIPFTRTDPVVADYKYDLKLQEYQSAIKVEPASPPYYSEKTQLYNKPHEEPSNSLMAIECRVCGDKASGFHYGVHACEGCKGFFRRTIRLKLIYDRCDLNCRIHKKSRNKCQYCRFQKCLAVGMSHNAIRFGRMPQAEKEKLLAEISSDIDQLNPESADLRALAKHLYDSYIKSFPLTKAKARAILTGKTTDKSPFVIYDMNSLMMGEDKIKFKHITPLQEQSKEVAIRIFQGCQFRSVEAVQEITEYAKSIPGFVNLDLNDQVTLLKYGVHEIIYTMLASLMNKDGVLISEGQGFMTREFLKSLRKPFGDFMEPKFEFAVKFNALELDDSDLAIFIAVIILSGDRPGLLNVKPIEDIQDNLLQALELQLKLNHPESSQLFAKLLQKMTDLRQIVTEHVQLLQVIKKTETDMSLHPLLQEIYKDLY
# Method in brief: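 GeneBLAzer PPARg UAS-bla HEK293H cells carrying a UAS-driven beta-lactamase reporter were plated at 3000 cells/well, preincubated 5 h at 37C, then given compound for 17 h at 37C; LiveBLAzer B/G FRET substrate was read after 1 h at room temperature.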
# [4] = qHTS assay for small molecule agonists of the antioxidant response element (ARE) signaling pathway (AID 743202; active means well fitted activation curve with a large enough effect in the signal ratio in the repeat runs, not every such curve was filed as active; inconclusive means weak or mixed curves, or effect the other way; inactive means no such curve, though single readings can be large or run the other way; the % refers to the signal ratio; further: potency means the concentration at half of the fitted maximal effect); conditions: HepG2 ARE-bla reporter, beta-lactamase FRET, 16 h; activation: at 73.3 µM (top of the series) unless noted
# Method in brief: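 Steps: seed ARE-bla HepG2 cells (2,000/well); incubate 5 h at 37 C; add compounds by pin tool; incubate 16 h at 37 C; add FRET substrate; read fluorescence after 2 h at RT.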
# [5] = qHTS assay to identify small molecule agonists of the farnesoid-X-receptor (FXR) signaling pathway - cell viability counter screen (AID 743218); conditions: FXR-bla HEK293T viability, CellTiter-Glo luminescence, 16 h; viability change, negative = cytotoxic: at 62.6 µM (top of the series) unless noted; further: on the % scale 0 is the no-effect control and ±100 the full control effect; nearly all actives have a fitted effect of over 45% in size
# Method in brief: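 Viability of FXR-bla HEK 293T cells is measured by ATP-based CellTiter-Glo luminescence following 16 h compound treatment at 37 C and a prior 2 h room-temperature beta-lactamase substrate step.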
# [6] = molecular target: Vitamin D3 receptor (Homo sapiens) (UniProt P11473); assay: qHTS assay to identify small molecule antagonists of the vitamin D receptor (VDR) signaling pathway (AID 743223; active means well fitted inhibition curve with a large enough effect in the signal ratio in the repeat runs, not every such curve was filed as active; inconclusive means weak or mixed curves, or effect the other way; inactive means no such curve, though single readings can be large or run the other way; the % refers to the signal ratio; further: on the % scale 0 is the no-effect control and ±100 the full control effect); conditions: VDR-UAS-bla HEK293T, beta-lactamase FRET ratio, 16 h; activity change, negative = inhibition: at 61 µM (top of the series) unless noted
# UniProt P11473, sequence (P11473 whole entry, looked up): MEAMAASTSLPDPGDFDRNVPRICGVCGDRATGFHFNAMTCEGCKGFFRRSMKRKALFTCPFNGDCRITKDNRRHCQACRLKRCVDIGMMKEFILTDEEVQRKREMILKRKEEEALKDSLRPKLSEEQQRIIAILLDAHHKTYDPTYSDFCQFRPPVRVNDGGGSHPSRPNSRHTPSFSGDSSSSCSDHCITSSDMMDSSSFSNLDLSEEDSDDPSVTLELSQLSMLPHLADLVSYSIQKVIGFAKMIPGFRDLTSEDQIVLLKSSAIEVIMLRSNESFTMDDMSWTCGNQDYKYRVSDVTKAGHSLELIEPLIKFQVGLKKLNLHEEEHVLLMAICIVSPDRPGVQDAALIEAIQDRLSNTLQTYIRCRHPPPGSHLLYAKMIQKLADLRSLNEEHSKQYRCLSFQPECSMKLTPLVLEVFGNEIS
# Method in brief: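 Beta-lactamase reporter read-out: FRET substrate fluorescence after 2 h at room temperature, following 16 h exposure of VDR-bla cells to test compound plus 3 nM (final) 1alpha,25-dihydroxyvitamin D3 agonist at 37C.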
# [7] = molecular target: Retinoic acid receptor RXR-alpha (Homo sapiens) (UniProt P19793); assay: qHTS assay to identify small molecule agonists of the RXR signaling pathway (AID 1159527; calls by dose curve; further: nearly all actives have a fitted effect of over 35% in size; further: potency means the concentration at half of the fitted maximal effect); conditions: HEK293T RXRa-UAS-bla, beta-lactamase ratio, 16 h; activation: at 76.8 µM (top of the series) unless noted
# UniProt P19793, sequence (P19793 whole entry, looked up): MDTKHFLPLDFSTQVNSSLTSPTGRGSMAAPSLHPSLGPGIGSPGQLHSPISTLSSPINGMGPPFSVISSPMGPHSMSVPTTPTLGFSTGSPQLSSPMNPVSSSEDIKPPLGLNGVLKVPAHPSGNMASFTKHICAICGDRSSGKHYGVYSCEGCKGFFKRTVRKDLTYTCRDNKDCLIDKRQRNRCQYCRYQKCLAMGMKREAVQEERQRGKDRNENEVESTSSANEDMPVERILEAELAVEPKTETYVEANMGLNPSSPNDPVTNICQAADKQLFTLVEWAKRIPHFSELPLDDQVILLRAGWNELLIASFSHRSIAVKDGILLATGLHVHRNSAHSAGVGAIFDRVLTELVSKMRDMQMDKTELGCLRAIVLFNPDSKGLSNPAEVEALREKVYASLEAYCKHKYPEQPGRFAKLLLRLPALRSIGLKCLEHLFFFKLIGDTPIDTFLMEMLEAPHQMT
# Method in brief: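 Agonist mode; 9-cis retinoic acid positive control. HEK 293T UAS-bla reporter cells, 2% charcoal-stripped FBS, 16 hr compound exposure at 37 C/5% CO2. LiveBLAzer B/G FRET substrate 2 hr RT; ex 405, em 460/530 nm.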
# [8] = qHTS assay to identify small molecule antagonists of the sonic hedgehog signaling (Shh) pathway (AID 1259369; calls by dose curve; further: nearly all actives have a fitted effect of over 45% in size; further: potency means the concentration at half of the fitted maximal effect)
# Method in brief: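 Stable Gli1-Luc reporter NIH/3T3 clone; quantitative HTS in stimulated mode with conditioned medium. Luminescence measured after 24hr compound treatment at 37 C.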
# [9] = molecular target: Cytochrome P450 2D6 (Homo sapiens) (UniProt P10635); assay: Cytochrome P450 Family 2 Subfamily D Member 6 (CYP2D6) small molecule antagonists: luciferase reporter qHTS assay (AID 1671196); further: nearly all actives have a fitted effect of over 50% in size; further: potency means the concentration at half of the fitted maximal effect
# UniProt P10635, sequence (P10635 whole entry, looked up): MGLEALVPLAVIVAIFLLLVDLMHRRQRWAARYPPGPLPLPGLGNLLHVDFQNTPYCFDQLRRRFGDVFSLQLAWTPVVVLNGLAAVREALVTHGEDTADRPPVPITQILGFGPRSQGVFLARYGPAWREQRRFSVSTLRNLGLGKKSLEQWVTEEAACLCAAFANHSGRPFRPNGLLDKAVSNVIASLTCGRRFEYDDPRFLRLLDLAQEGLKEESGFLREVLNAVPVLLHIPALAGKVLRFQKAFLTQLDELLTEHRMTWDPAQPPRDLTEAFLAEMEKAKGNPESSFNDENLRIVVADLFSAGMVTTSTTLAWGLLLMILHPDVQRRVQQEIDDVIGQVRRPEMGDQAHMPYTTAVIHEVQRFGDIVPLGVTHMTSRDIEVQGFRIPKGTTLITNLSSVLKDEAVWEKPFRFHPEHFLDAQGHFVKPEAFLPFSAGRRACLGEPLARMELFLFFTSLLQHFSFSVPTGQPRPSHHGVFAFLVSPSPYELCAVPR
# Method in brief: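 Test chemicals meet CYP2D6 plus proluciferin substrate (10 min, RT); NADPH regenerating solution then drives turnover for 1 h. Detection reagent halts the reaction; luminescence measured after 20 min.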
# [10] = molecular target: Glucocorticoid receptor (Homo sapiens) (UniProt P04150); assay: qHTS assay to identify small molecule antagonists of the glucocorticoid receptor (GR) signaling pathway (AID 720692; active means well fitted inhibition curve with a large enough effect in the signal ratio in the repeat runs, not every such curve was filed as active; inconclusive means weak or mixed curves, or effect the other way; inactive means no such curve, though single readings can be large or run the other way; the % refers to the signal ratio; further: on the % scale 0 is the no-effect control and ±100 the full control effect); conditions: GR-bla HeLa, beta-lactamase FRET ratio, dexamethasone-stimulated, 18 h; activity change, negative = inhibition: at 58.5 µM (top of the series) unless noted
# UniProt P04150, sequence (P04150 whole entry, looked up): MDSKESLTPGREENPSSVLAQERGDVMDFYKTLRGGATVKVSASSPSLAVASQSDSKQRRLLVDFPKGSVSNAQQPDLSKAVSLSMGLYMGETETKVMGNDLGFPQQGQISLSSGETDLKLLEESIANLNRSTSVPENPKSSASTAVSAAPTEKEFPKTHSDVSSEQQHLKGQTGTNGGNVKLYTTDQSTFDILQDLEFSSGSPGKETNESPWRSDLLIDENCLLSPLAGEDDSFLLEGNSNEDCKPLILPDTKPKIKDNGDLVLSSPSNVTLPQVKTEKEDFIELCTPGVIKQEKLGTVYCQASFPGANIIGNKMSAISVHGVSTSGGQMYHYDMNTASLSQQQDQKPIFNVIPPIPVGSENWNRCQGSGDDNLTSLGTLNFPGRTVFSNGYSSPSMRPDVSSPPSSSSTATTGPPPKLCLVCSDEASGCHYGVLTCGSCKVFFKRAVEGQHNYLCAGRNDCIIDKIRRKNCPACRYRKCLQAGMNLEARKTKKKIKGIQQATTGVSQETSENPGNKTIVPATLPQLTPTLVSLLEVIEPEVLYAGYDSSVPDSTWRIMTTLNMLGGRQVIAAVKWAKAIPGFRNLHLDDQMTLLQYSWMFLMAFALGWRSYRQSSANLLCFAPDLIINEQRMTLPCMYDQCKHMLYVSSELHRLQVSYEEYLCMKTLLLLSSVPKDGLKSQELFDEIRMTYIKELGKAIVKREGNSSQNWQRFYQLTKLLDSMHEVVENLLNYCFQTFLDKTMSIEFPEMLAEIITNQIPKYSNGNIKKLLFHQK
# Method in brief: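 Quantitative HTS in antagonist format: HeLa cells expressing endogenous GR and a stably integrated GRE-bla reporter, stimulated with 5 nM dexamethasone (final) alongside test compounds for 18 h.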
# [11] = qHTS assay for identifying genotoxic compounds that show differential cytotoxicity against isogenic chicken DT40 cell lines with known DNA damage response pathways - Rev3 mutant cell line (AID 743014); conditions: chicken DT40 Rev3-/- viability, CellTiter-Glo, 40 h; activity, negative = cytotoxicity: at 68.4 µM (top of the series) unless noted; further: nearly all actives have a fitted effect of over 55% in size; further: potency means the concentration at half of the fitted maximal effect
# [12] = qHTS assay to identify small molecule antagonists of the thyroid receptor (TR) signaling pathway - cell viability counter screen (AID 743064); conditions: GH3.TRE-Luc viability, CellTiter-Fluor, 24 h; activity change, negative = cytotoxic: at 70.3 µM (top of the series) unless noted; further: potency means the concentration at half of the fitted maximal effect; nearly all actives have a fitted effect of over 50% in size
# Method in brief: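 GH3.TRE-Luc cells, 4 h pre-plating; cpd + T3 1 nM final; 37 °C 23.5 h; CellTiter-Fluor 30 min; fluorescence read.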
# [13] = molecular target: Progesterone receptor (Homo sapiens) (UniProt P06401); assay: qHTS assay to identify small molecule antagonists of the progesterone receptor (PR) signaling pathway (AID 1346795; active means well fitted inhibition curve with a large enough effect in the signal ratio in the repeat runs, not every such curve was filed as active; inconclusive means weak or mixed curves; the % refers to the signal ratio; further: on the % scale 0 is the no-effect control and ±100 the full control effect); conditions: PR-UAS-bla HEK293T, beta-lactamase FRET ratio, 16 h; activity change, negative = inhibition: at 92.4 µM (top of the series) unless noted
# UniProt P06401, sequence (P06401 whole entry, looked up): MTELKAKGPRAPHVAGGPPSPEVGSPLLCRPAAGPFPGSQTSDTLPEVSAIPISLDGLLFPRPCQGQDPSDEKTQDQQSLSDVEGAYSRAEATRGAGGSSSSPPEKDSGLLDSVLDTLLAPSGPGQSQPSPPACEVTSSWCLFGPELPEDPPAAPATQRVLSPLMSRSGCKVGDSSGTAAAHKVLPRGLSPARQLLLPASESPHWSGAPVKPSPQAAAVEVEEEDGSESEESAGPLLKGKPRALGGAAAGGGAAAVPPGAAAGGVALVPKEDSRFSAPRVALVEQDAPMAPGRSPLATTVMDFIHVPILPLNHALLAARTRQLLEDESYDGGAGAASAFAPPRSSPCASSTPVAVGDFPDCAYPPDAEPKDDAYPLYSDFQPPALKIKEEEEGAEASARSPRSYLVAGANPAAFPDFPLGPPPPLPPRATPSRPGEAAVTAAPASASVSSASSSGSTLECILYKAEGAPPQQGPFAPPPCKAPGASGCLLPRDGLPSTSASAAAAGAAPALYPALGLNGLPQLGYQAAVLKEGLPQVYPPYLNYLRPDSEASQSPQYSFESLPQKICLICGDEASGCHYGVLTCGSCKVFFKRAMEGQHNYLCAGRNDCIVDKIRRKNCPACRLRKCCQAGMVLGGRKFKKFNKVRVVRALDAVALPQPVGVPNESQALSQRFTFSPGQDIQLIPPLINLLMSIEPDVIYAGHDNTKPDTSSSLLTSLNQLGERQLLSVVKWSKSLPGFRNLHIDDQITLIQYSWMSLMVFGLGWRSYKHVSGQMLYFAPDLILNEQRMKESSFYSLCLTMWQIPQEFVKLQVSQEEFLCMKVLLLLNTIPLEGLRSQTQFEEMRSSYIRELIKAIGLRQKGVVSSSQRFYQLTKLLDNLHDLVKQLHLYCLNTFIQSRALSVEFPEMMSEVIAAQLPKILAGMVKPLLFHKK
# Method in brief: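 Beta-lactamase reporter, HEK293T PR-UAS-bla line; 2% charcoal-stripped FBS; 6 hr pre-incubation, 37C/5% CO2. Compound + R5020 1 nM final, 16 hr. LiveBLAzer B/G FRET substrate, 2 hr RT; fluorescence intensity read.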
# [14] = molecular target: Cytochrome P450 2C9 (Homo sapiens) (UniProt P11712); assay: Cytochrome P450 Family 2 Subfamily C Member 9 (CYP2C9) small molecule antagonists: luciferase reporter qHTS assay (AID 1671198); further: potency means the concentration at half of the fitted maximal effect; nearly all actives have a fitted effect of over 50% in size
# Method in brief: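 CYP2C9 activity was measured with a P450-Glo proluciferin substrate. Enzyme–substrate mix was held with compound for 10 min at room temperature, then NADPH regeneration solution was added for 1 h at 37C. Luciferin product was read as luminescence.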
# [15] = molecular target: Cytochrome P450 1A2 (Homo sapiens) (UniProt P05177); assay: Cytochrome P450 Family 1 Subfamily A Member 2 (CYP1A2) small molecule antagonists: luciferase reporter qHTS assay (AID 1671199); further: nearly all actives have a fitted effect of over 50% in size; further: potency means the concentration at half of the fitted maximal effect
# UniProt P05177, sequence (P05177 whole entry, looked up): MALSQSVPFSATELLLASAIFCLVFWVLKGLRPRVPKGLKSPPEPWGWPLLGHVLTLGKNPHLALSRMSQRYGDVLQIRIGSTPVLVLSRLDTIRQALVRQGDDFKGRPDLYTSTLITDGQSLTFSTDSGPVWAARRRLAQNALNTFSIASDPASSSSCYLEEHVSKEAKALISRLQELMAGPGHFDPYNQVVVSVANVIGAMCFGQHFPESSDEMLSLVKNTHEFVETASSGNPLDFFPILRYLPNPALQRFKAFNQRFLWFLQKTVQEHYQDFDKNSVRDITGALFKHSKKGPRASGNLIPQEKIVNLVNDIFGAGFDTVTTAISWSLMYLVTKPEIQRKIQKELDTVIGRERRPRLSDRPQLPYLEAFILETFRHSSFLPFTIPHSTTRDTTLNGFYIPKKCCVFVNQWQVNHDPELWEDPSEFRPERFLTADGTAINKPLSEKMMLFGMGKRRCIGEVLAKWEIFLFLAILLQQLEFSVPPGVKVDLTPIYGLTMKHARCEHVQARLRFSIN
# Method in brief: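 Steps: enzyme-substrate mix dispensed; test compounds and furafylline control pinned in; 10 min room temperature; NADPH regeneration solution added, 1 h; reaction stopped with luciferin detection reagent; luminescence read after 20 min.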
# [16] = qHTS assay for identifying genotoxic compounds that show differential cytotoxicity against isogenic chicken DT40 cell lines with known DNA damage response pathways - wild type cell line (AID 743012); conditions: DT40 wild type chicken cells viability, CellTiter-Glo, 40 h; activity change, negative = cytotoxicity: at 68.4 µM (top of the series) unless noted; further: on the % scale 0 is the no-effect control and ±100 the full control effect; nearly all actives have a fitted effect of over 60% in size
# Method in brief: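 Luminescent ATP viability signal (CellTiter-Glo, 30 min RT) recorded after wild type DT40 cells were incubated with compounds for 40 h at 37 C/5% CO2.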
# [17] = qHTS assay to identify small molecule antagonists of the progesterone receptor (PR) signaling pathway - cell viability counter screen (AID 1346798)
# Method in brief: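 Luminescence readout (CellTiter-Glo, 30 min, RT) of viability in PR-UAS-bla HEK293T cells exposed to compound and R5020 agonist for 16 hr at 37C, 5% CO2; run in the same wells as the beta-lactamase reporter read.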
# [18] = qHTS assay to identify small molecule agonists of the progesterone receptor (PR) signaling pathway - cell viability counter screen (AID 1346799; calls by dose curve; further: potency means the concentration at half of the fitted maximal effect; nearly all actives have a fitted effect of over 45% in size)
# Method in brief: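 HEK293T PR-UAS-bla, 3,000 cells/well, 2% charcoal-stripped FBS; 6 h settle, compound 16 h at 37C/5% CO2; LiveBLAzer 2 h RT, then CellTiter-Glo 30 min RT, luminescence read.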
# [19] = molecular target: Cytochrome P450 2C19 (Homo sapiens) (UniProt P33261); assay: Cytochrome P450 Family 2 Subfamily C Member 19 (CYP2C19) small molecule antagonists: luciferase reporter qHTS assay (AID 1671197); further: potency means the concentration at half of the fitted maximal effect; nearly all actives have a fitted effect of over 65% in size
# UniProt P33261, sequence (P33261 whole entry, looked up): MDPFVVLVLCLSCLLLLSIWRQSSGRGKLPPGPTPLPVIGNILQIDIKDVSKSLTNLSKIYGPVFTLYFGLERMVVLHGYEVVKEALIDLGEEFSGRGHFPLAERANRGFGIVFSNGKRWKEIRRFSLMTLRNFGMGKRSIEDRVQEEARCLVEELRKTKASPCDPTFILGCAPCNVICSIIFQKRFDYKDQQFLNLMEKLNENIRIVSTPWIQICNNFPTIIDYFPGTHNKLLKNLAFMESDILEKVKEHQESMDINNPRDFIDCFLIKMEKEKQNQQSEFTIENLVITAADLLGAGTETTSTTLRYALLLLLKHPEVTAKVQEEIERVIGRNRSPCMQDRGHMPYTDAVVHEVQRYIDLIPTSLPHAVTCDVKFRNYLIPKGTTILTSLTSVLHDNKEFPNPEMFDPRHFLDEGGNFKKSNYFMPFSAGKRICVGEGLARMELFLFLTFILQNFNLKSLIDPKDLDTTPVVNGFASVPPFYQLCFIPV
# Method in brief: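 Quantitative high-throughput screen of the Tox21 library using CYP2C19 with proluciferin substrate. Reaction: NADPH regeneration, 37C, 1 h, after 10 min compound preincubation at room temperature. Readout: luminescence.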
# Tags describe the fitted curve by direction and shape or compound fluorescence and quenching.
structure (smiles),measurement,setting,value
CCOC(=O)Nc1ccc2c(c1)N(C(=O)CCN1CCOCC1)c1ccccc1S2,Potency,[1],inactive
same,Potency,[2],"inconclusive: 4.52 µM [activator, partial curve, poor fit]"
same,"ratio activity, negative = inhibition",[3],inconclusive: -33%
same,Potency,[4],active: 11.9 µM
same,Potency,[5],inactive
same,"activity change, negative = inhibition",[6],inconclusive: 6.16%
same,Potency,[7],"inconclusive: 2.13 µM [rising, partial curve, poor fit]"
same,Potency,[8],"inconclusive: 0.841 µM [inhibitor, full curve]"
same,Potency,[9],"inconclusive: 24.5 µM [inhibitor, partial curve]"
O=C(O)c1cc(Cl)cc(Cl)c1,Potency,[2],inactive
same,"activity change, negative = inhibition",[10],inconclusive: 30%
same,Potency,[11],inactive
same,Potency,[12],"inconclusive: 19.3 µM [rising, partial curve]"
same,"ratio activity, negative = inhibition",[3],inconclusive: 2.8%
same,Potency,[7],inactive
same,Potency,[8],inactive
same,"activity change, negative = inhibition",[13],inconclusive: 3.54%
same,Potency,[14],"inconclusive: 70.7 µM [inhibitor, partial curve]"
same,Potency,[15],"inconclusive: 70.7 µM [inhibitor, partial curve, poor fit]"
CN1CC(=O)NC1=N,Potency,[16],inactive
same,Potency,[11],"inconclusive: 29.8 µM [rising, partial curve, poor fit]"
same,Potency,[4],inactive
same,Potency,[5],inactive
same,Potency,[6],inactive
same,Potency,[7],inactive
same,Potency,[8],inactive
same,Potency,[15],inactive
C=C(C)C(=O)OCCNC(C)(C)C,Potency,[2],inactive
same,Potency,[11],"inconclusive: 24.3 µM [cytotoxic, single point]"
same,activation,[4],inconclusive: 19.1%
same,Potency,[7],inactive
same,Potency,[17],"inconclusive: 24.3 µM [cytotoxic, partial curve]"
same,Potency,[18],"inconclusive: 17.2 µM [cytotoxic, full curve, poor fit]"
same,Potency,[19],active: 70.9 µM
COc1cc(C(=S)N2CCOCC2)ccc1O,Potency,[1],inactive
same,"ratio activity, negative = MMP loss",[2],inconclusive: 20.4%
same,Potency,[10],inactive
same,"ratio activity, negative = inhibition",[3],inconclusive: -15.9%
same,Potency,[4],inactive
same,Potency,[7],inactive
same,Potency,[9],inactive
same,Potency,[19],"inconclusive: 38.9 µM [inhibitor, single point]"
OC[C@H]1O[C@@H]2O[C@H]3[C@H](O)[C@@H](O)[C@@H](O[C@H]4[C@H](O)[C@@H](O)[C@@H](O[C@H]5[C@H](O)[C@@H](O)[C@@H](O[C@H]6[C@H](O)[C@@H](O)[C@@H](O[C@H]7[C@H](O)[C@@H](O)[C@@H](O[C@H]8[C@H](O)[C@@H](O)[C@@H](O[C@H]9[C@H](O)[C@@H](O)[C@@H](O[C@H]1[C@H](O)[C@H]2O)O[C@@H]9CO)O[C@@H]8CO)O[C@@H]7CO)O[C@@H]6CO)O[C@@H]5CO)O[C@@H]4CO)O[C@@H]3CO,"ratio activity, negative = MMP loss",[2],inconclusive: 8.13% [at 39.1 µM]
same,Potency,[10],inactive
same,Potency,[11],"inconclusive: 3.99 µM [cytotoxic, partial curve, poor fit]"
same,Potency,[3],inactive
same,Potency,[5],inactive
same,activation,[7],inconclusive: 7.77% [at 35.3 µM]
